# Assay results published in PMC4336329 (PLoS ONE, 2015).
# In all, about 310,000 compounds went through this assay and about 14,000 (4.5%) showed an effect of 50% or more. The effect is printed as a negative number. Some of the results follow.
# Biological target: human ether-à-go-go-related gene (hERG) potassium channel (human, UniProt Q12809)
# Assay: primary screen, population patch clamp on CHO cells stably expressing hERG
# 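Note: peak tail current of the secondary pulse compared with the same well before compound.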
# Sequence of human ether-à-go-go-related gene (hERG) potassium channel (Q12809 whole entry, looked up): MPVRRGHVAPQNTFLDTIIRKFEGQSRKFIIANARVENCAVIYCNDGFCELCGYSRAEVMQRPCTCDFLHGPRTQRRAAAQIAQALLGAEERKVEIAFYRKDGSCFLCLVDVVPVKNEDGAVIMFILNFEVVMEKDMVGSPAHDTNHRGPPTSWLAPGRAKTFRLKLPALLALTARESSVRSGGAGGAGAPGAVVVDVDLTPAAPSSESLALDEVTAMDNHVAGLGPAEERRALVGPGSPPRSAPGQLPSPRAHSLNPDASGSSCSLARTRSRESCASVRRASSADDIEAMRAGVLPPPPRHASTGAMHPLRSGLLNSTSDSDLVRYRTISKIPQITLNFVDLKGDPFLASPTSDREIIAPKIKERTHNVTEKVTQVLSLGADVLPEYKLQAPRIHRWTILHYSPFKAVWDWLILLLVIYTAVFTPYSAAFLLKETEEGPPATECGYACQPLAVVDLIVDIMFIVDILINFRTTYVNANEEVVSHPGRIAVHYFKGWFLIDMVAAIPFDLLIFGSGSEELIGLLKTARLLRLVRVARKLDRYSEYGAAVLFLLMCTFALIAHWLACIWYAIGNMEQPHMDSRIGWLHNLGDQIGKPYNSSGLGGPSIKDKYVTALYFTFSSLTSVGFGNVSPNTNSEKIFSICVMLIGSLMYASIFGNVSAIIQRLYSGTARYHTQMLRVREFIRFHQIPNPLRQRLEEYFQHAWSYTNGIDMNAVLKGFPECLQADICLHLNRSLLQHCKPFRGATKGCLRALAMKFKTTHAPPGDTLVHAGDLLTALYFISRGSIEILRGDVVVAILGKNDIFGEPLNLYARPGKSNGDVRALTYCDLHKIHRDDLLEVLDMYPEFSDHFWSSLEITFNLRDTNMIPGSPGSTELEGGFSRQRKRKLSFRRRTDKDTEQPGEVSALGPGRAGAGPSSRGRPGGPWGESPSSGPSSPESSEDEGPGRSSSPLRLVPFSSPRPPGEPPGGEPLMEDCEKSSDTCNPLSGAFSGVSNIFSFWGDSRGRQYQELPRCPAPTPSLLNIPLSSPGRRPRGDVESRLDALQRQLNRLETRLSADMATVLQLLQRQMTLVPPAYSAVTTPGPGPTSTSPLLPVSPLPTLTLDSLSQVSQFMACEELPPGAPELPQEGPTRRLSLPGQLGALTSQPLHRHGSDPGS
row,SMILES,"hERG current change (%, negative = inhibition) at 10uM"
1,COc1ccc(-n2cc(CN(C)Cc3n[nH]c(=O)[nH]3)c(-c3cccc(F)c3)n2)cc1,-15.4%
2,CCCCN(CC)CCNS(=O)(=O)c1ccc2c(c1)oc(=O)n2C,-3.03%
3,O=C(O)CC(=O)Nc1cc(Cl)ccc1O,4.07%
4,Cc1nn(S(=O)(=O)N2CCCCC2)c(C)c1Br,6.5%
5,OCC[C@@H]1C[C@H](O)[C@@H](O)[C@@]2(CCc3ccccc3O2)O1,-3.24%
6,Cc1occc1C(=O)Nc1ccc2c(c1)OCCO2,-14.2%
7,CSc1nsc(SCC(=O)Nc2ccccc2C(=O)O)n1,19.5%
8,CC(C)(C)C(=O)C1=C(O)C(=O)N(Cc2ccccc2)C1c1ccccc1Cl (stereo not drawn),14.1%
9,C/C(=N\NC=O)c1ccncc1,3.94%
10,CC(=O)N/C(=N/c1nc(C)cc(C)n1)Nc1ccc(C)cc1C,-10.6%
11,CC(C)(C)c1ccc(C(=O)CSc2ncn[nH]2)cc1,-0.683%
12,CC1(C)NC(=O)N(CC(=O)N2CCCC(C(F)(F)F)C2)C1=O (stereo not drawn),10.4%
13,Cc1ccc(C)c(S(=O)(=O)c2c[nH]c(=S)[nH]c2=O)c1,13.4%
14,Cc1ccc(NC(=O)C2(NC(=O)c3cccc(N4C(=O)CSC4c4ccccc4)c3)CCCCC2)cc1 (stereo not drawn),2.72%
15,COc1ccc(NC(=S)NC(=O)CC(C)C)c(OC)c1,20.9%
16,CCOC(=O)c1c(C)c(C(=O)N2CCC3(CC2)OCCO3)c(C)n1CC,12.7%
17,O=C(CSCc1ccc(F)cc1)Nc1ccccc1C(=O)N1CCOCC1,-3.51%
18,O=C(Nc1ccc2c(c1)nc1n2CCSC1)c1ccccc1,-14.9%
19,Cc1ccc(-c2csc(NC(=O)c3cnccn3)n2)cc1C,9.47%
20,CCOc1ccc(C2C3=C(Nc4nc(N)[nH]c(=O)c42)c2ccccc2C3=O)cc1 (stereo not drawn),-12.2%
21,CCCNC(=S)Nc1ccc(Cl)cc1C,1.16%
22,Cc1cc(CN(C)C(=O)CC2C(=O)NCCN2Cc2c(F)cccc2Cl)n[nH]1 (stereo not drawn),2.87%
23,CC(NC(=O)C1CCN(S(=O)(=O)c2cccs2)CC1)c1cccc(Cl)c1 (stereo not drawn),-46%
24,C[n+]1ccn(CC(=O)c2ccc(Br)cc2)c1.[Br-],-5.34%

row,SMILES,"hERG current change (%, negative = inhibition) at 10uM"
1,CCC(CC)C1C(C#N)=C(N)SC(N)=C1C#N,-4.08%
2,COc1cc(CNCc2cccnc2)ccc1OCC(=O)NC1CCCCC1.Cl,17.7%
3,COc1ccc(/C=N/n2c(N)nc3ccccc32)cc1OC,-1.46%
4,CCc1ccc(C(=O)COC(=O)CNC(=O)c2ccco2)cc1,-18.2%
5,COc1cccc(C(=O)Oc2cc(-c3ccccc3)no2)c1,9.95%
6,O=C(Cc1ccc(Cl)cc1)Nc1cccc2ncccc12,20.6%
7,CCC1(C(=O)O)NC(c2cc(OC)ccc2O)C2C(=O)N(Cc3ccccc3)C(=O)C21 (stereo not drawn),7.42%
8,COc1ccc(CC(=O)N2CCOCC2)cc1,16.9%
9,CCc1ccccc1N(C(=O)CCC(=O)Nc1cc(C)on1)C(C(=O)NC1CCCC1)c1ccco1 (stereo not drawn),-0.891%
10,COc1cc(SC)ccc1C(=O)NNC(=O)c1cc(C)oc1C,8.47%
11,CCOCC(=O)Nc1ncc(S(=O)(=O)c2ccc([N+](=O)[O-])cc2)s1,-40.5%
12,COc1ccc(C(=O)CC2SC(N)=NC2=O)cc1 (stereo not drawn),18.9%
13,Cc1ccc(OCCN2CCN(C(=O)CCC(=O)Nc3nnc(CC(C)C)s3)CC2)cc1,-43.5%
14,O=C1NC(=O)N(c2cccc(F)c2)C(=O)/C1=C/c1ccc(N2CCOCC2)cc1,9.9%
15,CCN1C(=O)c2cccc3c(N)ccc1c23,-8.39%
16,CCC(C)(C)n1nnnc1C(c1cccs1)N1CCc2ccccc21 (stereo not drawn),-5.76%
17,CC(C)C1Oc2cc3oc(=O)ccc3cc2C1=O (stereo not drawn),-20.4%
18,CC(C)(C)n1ncc2c(=O)n(CC(=O)N3CCCCCC3)cnc21,6.45%
19,Cc1ccnc(NC(=O)CNC(=O)c2ccccc2)c1,-6.48%
20,COc1ccc(C(=O)NCc2ncccc2C)cc1OC1CCN(C(C)=O)CC1,9.32%
21,COc1ccc(OC)c2[nH]c(=O)c(CCNC(=O)c3cccs3)cc12,-14.8%
22,CCOc1ccc(C(=O)OC2CCN(C)CC2)cc1.Cl,-21.6%
23,Cn1c(=O)cc(OCCCC(=O)Nc2cccnc2)c2ccccc21,0.169%
24,O=C(NCc1ccccc1)c1cc2nc(C3CC3)cc(C(F)(F)F)n2n1,-23.1%

row,SMILES,"hERG current change (%, negative = inhibition) at 10uM"
1,COCC(=O)NCCNc1nc2ccc(C)cc2cc1C,-24.9%
2,CC(C)C(NS(=O)(=O)c1cccc2nsnc12)C(=O)Nc1nc2ccc(Cl)cc2s1 (stereo not drawn),15.4%
3,C=CCNC(=S)N/N=C(\C)c1cccc(NC(C)=O)c1,-0.426%
4,COc1ccc(CCCNC(=O)C2CCC(=O)N(CC3CCCCC3)C2)cc1 (stereo not drawn),-16.6%
5,Cc1cc(=O)n2nc(N3CCCC(C(=O)NCCc4ccccc4)C3)sc2n1 (stereo not drawn),-13.3%
6,O=C(NC(=S)Nc1nc(-c2cccc([N+](=O)[O-])c2)cs1)c1cc(Cl)ccc1Cl,16.7%
7,COc1ccc(NC(=S)N2CCC(N(C)CC3CCCO3)CC2)cc1Cl (stereo not drawn),-35.5%
8,Cc1c(N2C(=O)c3ccc(Br)cc3C2=O)c(=O)n(-c2ccccc2)n1C,3.45%
9,O=C(N/N=C/c1cccc(O)c1)c1cc2c(ccc3ccccc32)o1,9.87%
10,CC(C)CN1C(=S)SC(C)(C)C1n1oc(=O)n(-c2ccccc2)c1=O (stereo not drawn),15.1%
11,Cc1nn(-c2ccccc2)c(C)c1/C=N\N1CCN(c2ccc(Cl)cc2)CC1,2.97%
12,CCN(CC)C(=O)c1[nH]cnc1C(=O)NCC(=O)OCc1ccccc1,-0.416%
13,COc1ccc(CCNC(=O)CCc2ccsc2)cc1OC,11.7%
14,CCCCn1c(SCC(=O)c2ccc(OC)cc2OC)nc2cc(S(N)(=O)=O)ccc21,-4.4%
15,COc1cc2c(cc1OC)CN(Cc1ccccc1)CC2,16.5%
16,COC(=O)c1cc(NCc2ccc3c(c2)OCO3)ccc1N1CCOCC1,-23.8%
17,CC(C)c1nnc(NC(=O)CC23CC4CC(CC(C4)C2)C3)s1,4.22%
18,CC(C)OC(=O)C(NC(=O)c1ccccc1)=C1CCCCC1,18.6%
19,N#Cc1ccc(N2CCNCC2)c(F)c1,-69%
20,CCn1c(CSc2nc3ccccc3s2)nc2ccccc21,-18.7%
21,CCc1nc(NCCN2CCOCC2)c(C#N)c2c1CCCC2,-37.2%
22,O=C1Nc2ccc(C(F)(F)F)cc2N2CCCC12 (stereo not drawn),-1.52%
23,COc1ccccc1C(=O)N1CCN(C(=O)c2oc3ccc(C)cc3c2C)CC1,-31.1%
24,Cc1nc2sc(C(=O)OCC(=O)N3c4ccccc4CC3C)c(C)c2c(=O)[nH]1 (stereo not drawn),5.27%

row,SMILES,"hERG current change (%, negative = inhibition) at 10uM"
1,N#C/C(=C\c1c(N2CCCCCC2)nc2ccccn2c1=O)C(=O)NCc1ccco1,-46.8%
2,CCC(c1nnc(SCC(=O)Nc2ccc(C(N)=O)cc2)n1Cc1ccccc1)N(C)C (stereo not drawn),8.45%
3,OCCNc1nc(-c2ccccc2)c2cc(Br)ccc2n1,5.26%
4,O=C1c2ccccc2NC(c2cccc(F)c2)N1Cc1ccco1 (stereo not drawn),-48.6%
5,CCC(=O)N(c1ccc(C(=O)O)cc1)c1nc(-c2ccc(OC)cc2)c(C)s1,3.06%
6,CC(C)CCN1NC2(CCCC(C)C2)NC1=S (stereo not drawn),11.6%
7,CC(CNC(=O)CCC(=O)N1CCOc2ccc(Cl)cc21)c1ccccc1 (stereo not drawn),-40.6%
8,CN(C)c1c(F)cc(C(=O)NCc2ccccc2)cc1F,-4.04%
9,COc1ccccc1/C=C/CN1CCCCC1,-2.31%
10,Cc1csc(SCC(=O)N2CCN(S(=O)(=O)c3ccccc3)CC2)n1,0.299%
11,CCC(C)(C)n1nnnc1C(c1cccs1)N1CCN(Cc2ccccc2)CC1 (stereo not drawn),-37.2%
12,CCOc1ccc(-n2c(=O)c3sccc3n(Cc3ccc(C)cc3)c2=O)cc1,0.351%
13,COc1ccc(OC)c(C(c2nnnn2C(C)(C)C)N2CCc3ccccc3C2)c1.Cl (stereo not drawn),-4.67%
14,NNC(=O)c1cc(Cl)ccc1Cl,12.6%
15,Cc1ccc(CCC(=O)Nc2ccc(CC(=O)O)cc2)o1,10.5%
16,CN(C)/C=N/c1sccc1C(N)=O,6.62%
17,CC(C)(Sc1ccc(CCN(CCCCC2CCCCC2)C(=O)NC2CCCCC2)cc1)C(=O)O,-10.2%
18,CCOC(=O)c1oc2ccccc2c1NC(=O)c1ccc2c(c1)OCO2,-26.3%
19,Cc1ccc(S(=O)(=O)NC(CC(N)=O)C(=O)O)cc1 (stereo not drawn),7.48%
20,Cc1ccc(NC(=O)CSc2nnc(NC(=O)C3CC3)s2)cc1,25.7%
21,COc1ccc(NC(=O)c2cc(-c3cc(OC)c(OC)c(OC)c3)nc3ccccc23)cc1OC,13%
